In the supplement of paper PMC10338343:
± gives the standard deviation. Whole data set: some 6,600 sequences, median “pre-steady-state target cleavage rate” near 0.07, cut for the highest 2% near 0.72. Only a part is listed here, and it is no random draw.

system: MIWI (PIWIL1) piRISC loaded with Kctd7 piRNA (30 nt); assay: pre-steady-state target cleavage rate (min^-1); MIWI and MILI are mouse PIWI proteins and EfPiwi is from a freshwater sponge; tags in brackets are library labels; higher = faster piRNA-guided slicing of the target; details: guide: Kctd7 piRNA 5'p-UGUUAAUCUCUCAGAGAAGGUGACAGUGAU; auxiliary factor: 500 nM mouse GTSF1
Experimental: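 Cleave-'n-Seq: a library of target RNAs (target site embedded in constant flanks, ACAGCATTCCGCGTTAGTGATATCCG... 5' flank; DNA-blocked outside the site) at 0.1 nM was incubated with 1 nM active mouse MILI or MIWI piRISC (synthetic 5'-monophosphorylated piRNA guide) with or without 500 nM mouse GTSF1 at 33 °C for 1 min to 16 h. Uncleaved targets were sequenced and normalised to non-target controls, and the pooled three trials were fitted to a burst-and-steady-state model to give the pre-steady-state cleavage rate (min^-1; k3 is constrained to at most 1e-4). Sequence is the target site only; target names encode pairing extent (gX:gY) and contiguous / 1-mismatch / 2-mismatch / bulge geometry. Fits with R² ≤ 0 are excluded.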

Row | Sequence | pre-steady-state target cleavage rate
1 | UUCACUGUCACCUUCUCUGAGAGUUUUACA | 0.559 ± 0.12
2 | UAGUGAGUCACCUUCUCUCUGAGAUUAACA | 0.0164 ± 0.0037
3 | UAGUGUGUCACCUUCUCUGAGUGUUUAACA | 0.0686 ± 0.014
4 | UAGUGACACACCUUGUCUGAGAGAUAAACA | 0.0911 ± 0.022
5 | UAGUGACUCACCUUCUCAGAGAGAUUUACA | 0.0695 ± 0.012
6 | AUCACUGUCACCUUCUCUGAGAGAGUUAACA | 0.651 ± 0.088
7 | UAGUGUGUCACCUAGUCUGAGAGAUUAACA | 0.266 ± 0.023
8 | UUCACUGUCACCUUGUCUGAGAGAUAAACA | 0.3 ± 0.051
9 | AUCACAGACACCUUCUCUGAGAGAUUAACA | 0.713 ± 0.044
10 | UAGACUCUCACCUUCUCUCAGAGAUUAACA | 0.0518 ± 0.0063
11 | UACACUGUCACCUUCUCUGAGAGAUUACACA | 0.185 ± 0.027
12 | AUCACUGUCACCAAGUCUGAGAGAUUAUGA | 0.0155 ± 0.0062
13 | UAGUGACAGUGGAACUCUGAGAGAUAAACA | < 0.0001
14 | UAGACUGUCACCUUGUCUGAGAGAUAUUGA | 0.038 ± 0.014
15 | UAGUGACAGUGGAAGUCUGAAGAUUAACA | < 0.0001
16 | AUGACUGUCACCUUCUCUGAGAGAUAAACA | 0.388 ± 0.037
17 | UAGUGAGUCCACCUUCUCUGAGAGAUUAACA | 0.379 ± 0.037
18 | UAGUCUGUCUCCUUCUCUGAGAGAUUUUGA | 0.0109 ± 0.0036
19 | UUCACUGUCACCUUGUCUGAGUGAUUAACA | 0.0394 ± 0.0054
20 | AUCACUGACACCUUCUCUGAGAGUUUAACA | 0.644 ± 0.16
21 | UAGUGUGUCACCUUCUCUCAGAGAUUAAGA | 0.0814 ± 0.021
22 | AUCACUGUCACCUUCUGUGUGAGAUUAACA | 0.101 ± 0.0082
23 | AUCACUGUCACCUUCUCUGAGAGAUUAUCA | 0.407 ± 0.057
24 | UACACUGUCACCUUCACUGAGACAUUAACA | 0.19 ± 0.025

Row | Sequence | pre-steady-state target cleavage rate
25 | UAGUGUGUGACCAUCUCUGAGAGAUUAACA | 0.416 ± 0.035
26 | UAGACUGUCACCUUCUCUGAGAGGAUUAACA | 0.369 ± 0.036
27 | UAGACUGUCACCUUCUCUGAGUGUUUAACA | 0.00739 ± 0.002
28 | UUCACUGUCACCUUCUGUGAGAGAUUUUGA | 0.113 ± 0.031
29 | UAGUGACUCACCUUCUCUGAGUGAAUAACA | 0.0078 ± 0.0031
30 | UUCACUGUCACCUUCUCUGAGAGAUUUUGA | 0.271 ± 0.069
31 | UAGUGACACACCUUCUCAGACAGAUUAACA | 0.0107 ± 0.004
32 | UAGACUGUCACCUUGUCUCAGAGAUUAACA | 0.0345 ± 0.0054
33 | UACACUGUCACCUUCACUGAGAGAUUAAGA | 0.116 ± 0.027
34 | UAGUGUGUCACCAUCUCUGAGAGAUUAACA | 0.609 ± 0.037
35 | UAGUGAGUCACCUUCUCUGAGAGUAUAUGA | 0.0298 ± 0.012
36 | UUCUGAGUCACCUUCUCUGAGAGAUUAUGA | 0.189 ± 0.037
37 | UACACUGUGACCUUCUCUGAGAGAUAUUGA | 0.0118 ± 0.0059
38 | UAGACUGACACCUUCUCUGAGUGAUUAACA | 0.023 ± 0.0043
39 | UAGACUGUCACCUACUCUGAGAGAUUAUCA | 0.257 ± 0.036
40 | UAGUGUGUCACGAACUCUGAGAGAUUAACA | 0.0752 ± 0.0083
41 | AUCACUGUCACCUUCUCUCAGAGAAUAACA | 0.0453 ± 0.012
42 | UAGUGACAGUCCAUCUCUGAGAGAUUAACA | 0.00671 ± 0.0019
43 | UAGUGUGUCACCUUCUCUGAGAGCAUUAACA | 0.347 ± 0.034
44 | UAGUGUGUCACCUUCUCAGAGAGAUUAACA | 0.44 ± 0.028
45 | UAGUGACUCACGUUCUCUGAGAGAUUAUCA | 0.0666 ± 0.01
46 | UAGUGAGUCACCUUCUCUGAGAGAUUCAACA | 0.393 ± 0.067
47 | AUCACUGUCACCUUCUCACUGAGAUUAACA | 0.00716 ± 0.0042
48 | UAGUGACACACCAACUCUGAGAGAUUAAGA | 0.00572 ± 0.0031

Row | Sequence | pre-steady-state target cleavage rate
49 | UAGUGACAGUCCUUUCUCUGAGAGAUUAACA | 0.503 ± 0.038
50 | UUCACUUUCACCUUCUCUGAGAGAUUAACA | 0.633 ± 0.027
51 | UUCACUGUCACCAUCUCUCAGAGAUUAACA | 0.0623 ± 0.0089
52 | UUCACUGUGACCUUCUCAGAGAGAUUAACA | 0.238 ± 0.018
53 | UAGUGACAGUCCUUCUCUGAGAGAUUAACG [g2:g20:cont:t1G] | 0.0562 ± 0.009
54 | UAGUGACAGUGGAUCUCUGACUGAUUAACA | < 0.0001
55 | UAGUGACUCACCUUCUCUGAGAUGAUUAACA | 0.00526 ± 0.0026
56 | UAGUGACACACCUUCUCUCAGACAUUAACA | 0.0146 ± 0.0058
57 | UAGUGACUCACCUUCUCUGUCAGAUUAACA | 0.0037 ± 0.0029
58 | AUCACUGUCACCUUCUCUCAGAGAUUAUGA | 0.0256 ± 0.0087
59 | UAGACUCUCACCUUCUCUGAGAGAAUAACA | 0.238 ± 0.038
60 | UACACUGUCACCUUCUCUGGGAGAUUAACA | 0.477 ± 0.029
61 | UAGUGACACACCUUCUCUGAGAGAUUUAGA | 0.0271 ± 0.0099
62 | UAGUGAGACACCUUCUCUGAGAGAAUAACA | 0.13 ± 0.02
63 | UAGUGACACACCAUCUCUGACAGAUUAACA | 0.0227 ± 0.0047
64 | UACACUCUCACCUUCUCUGAGAGAUAUUGA | 0.0441 ± 0.015
65 | UAGUCUGACACCUUCUCUGAGAGAUUAUCA | 0.265 ± 0.027
66 | UUCACUGUCACCUUCUCUCGAGAGAUUAACA | 0.593 ± 0.17
67 | UUCACAGUGACCUUCUCUGAGAGAUUAACA | 0.463 ± 0.029
68 | UAGUGACAGACCUUCUCUGAGAGAUUAUGA | 0.00752 ± 0.0042
69 | UACACACUCACCUUCUCUGAGAGAUUAAGA | 0.106 ± 0.024
70 | UACACUGUCACCUUCUCUGAGAGUUAACA | 0.372 ± 0.11
71 | UUCACUGUCAGCUUCUCUGAGAGAUAAACA | 0.306 ± 0.03
72 | UAGUGUGUCAGCUUCUCUGAGAGAAUAACA | 0.296 ± 0.045
